# Laboratory results taken from PubChem BioAssay AID1345082 (National Center for Advancing Translational Sciences (NCATS), 2018).
# The campaign covered roughly 94,000 compounds. About 4,000 (4.3%) were called active. The inconclusive results got no clear call from the source; some entries with a clear call stand among them for comparison. Calls follow the shape of the dose curve; as a rule, active = well fitted inhibition curve with a large enough effect; inconclusive = small, poorly fitted or top-dose-only effect; inactive = no such curve, though single readings can be large or run the other way. Potencies of inconclusive entries are doubtful fits and often do not repeat.
# Assay: Cytotoxic Profiling in NIH 3T3 Cell Line of Diverse Libraries Using Quantitative High-Throughput Screening; also: nearly all actives have a fitted effect of over 55% in size
# Conditions: NIH 3T3 viability, CellTiter-Glo ATP luminescence, 48-72 h; activity change, negative = cytotoxicity: at 96.7 µM (top of the series) unless noted; series mostly up to 96.7 µM
# Summary of the method: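 Cytotoxicity was measured by CellTiter-Glo ATP luminescence after 48 or 72 h compound exposure at 37 °C. Mouse NIH 3T3 fibroblasts were seeded at 400 cells/well and dosed by 23 nL pin transfer.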
# % is scaled to controls: 0 for no effect and ±100 for the full control effect; potency is read from the fitted curve at half-maximal effect; tags tell the direction and shape of the fitted curve.
Structure (SMILES),Potency,"activity change, negative = cytotoxicity",outcome
COCCN1CCOC2(CCN([S+](=O)([O-])c3ccc(F)cc3F)CC2)C1=O,"inconclusive: 100 µM [inhibitor, partial curve, poor fit]",–,–
COc1ccccc1-c1cccc(C(=O)N2CCN(C(=O)c3ccccc3Cl)CC2)c1,"inconclusive: 44.7 µM [inhibitor, partial curve, poor fit]",–,–
CCn1ccnc1C1CCN(C(=O)CC2COCCN2)CC1 (configuration not stated),–,inactive: -6.95%,–
O=C(c1cccnc1)N1CCC(n2cc(-c3nc(-c4ccccc4)no3)nn2)CC1,"inconclusive: 50.1 µM [inhibitor, partial curve, poor fit]",–,–
Cc1nn(-c2ccccc2)c2c1C(C)N(C1CCN(C(=O)NC3CCCC3)C1)C2=O (configuration not stated),"inconclusive: 50.1 µM [inhibitor, partial curve, poor fit]",–,–
Cc1cccc(OCC(=O)N2CCC3(CC2)NC(=O)N(Cc2ccccc2)C3=O)c1,"inconclusive: 44.7 µM [inhibitor, partial curve, poor fit]",–,–
C[C@]12CC[C@H](O)CC1=CCC[C@@H]2OC(=O)Nc1ccccc1,"inconclusive: 70.8 µM [inhibitor, single point]",–,–
CN1CCCCC(CC(=O)O)C1=O (configuration not stated),–,inactive: -0.0375%,–
O=C(C1CCCC1)N1CC2(CCCN(C3CCCCC3)C2)Cc2ccccc21 (configuration not stated),"inconclusive: 50.1 µM [inhibitor, partial curve, poor fit]",–,–
CC(=O)N[C@H]1CCN(C(=O)C[C@@H]2[C@H](O)CCC3[C@](C)(CO)[C@H](OC(=O)Nc4cccc(F)c4)CC[C@]32C)C1 (some centres not stated),–,inactive: -5.47%,–
CCNC(=O)O[C@H]1C(=O)N(C)C2(CCN(C(=O)C(C)C)CC2)[C@@H]1C(=O)NC,"inconclusive: 50.1 µM [inhibitor, partial curve, poor fit]",–,–
O=C(Nc1ccccc1)c1cnc2n1CCN(Cc1c[nH]c3ccccc13)CC2,"inconclusive: 112 µM [inhibitor, single point]",–,–
C#CCNC(=O)[C@@H]1Cc2cn(Cc3c(C)noc3C)c3cccc(c23)[C@H](CC(C)C)N1,active: 50.1 µM,–,–
O=C(O)CCC(=O)N1Cc2ccccc2CC2(CCCN2Cc2ccccc2)C1 (configuration not stated),–,inactive: -6.16%,–
CN1C(=O)CS(=O)C12CCN(C(=O)Cc1cccc(F)c1)CC2 (configuration not stated),–,–,inactive
COc1ccc(-c2cnc(Nc3cccc(N[S+](C)(=O)[O-])c3)c3c2CCO3)cn1,"inconclusive: 56.2 µM [inhibitor, partial curve, poor fit]",–,–
Fc1ccc(CCNc2cc(Cl)nc3ccnn23)cc1,"inconclusive: 8.91 µM [inhibitor, full curve]",–,–
